59 molecules from PubChem BioAssay AID1508624 (National Center for Advancing Translational Sciences (NCATS), 2021) can be followed below.

Screen size: about 48,000 compounds; about 120 (0.25%) were called active. Roughly 4% stayed inconclusive and do not appear here. Calls follow the shape of the dose curve; as a rule, active = well fitted activation curve with a large enough effect; inconclusive = small, poorly fitted or top-dose-only effect, or another doubt; inactive = no such curve, though single readings can be large or run the other way. The list shows a part of the results.

The test in a line: Primary qHTS for Identification of Small Molecule Activators of Huntingtin-Antisense Promoter Activity. Also: nearly all actives have a fitted effect of over 55% in size. The note with it: HEK293 HTT-AS promoter firefly luciferase reporter, 24 h; series mostly up to 57.5 µM; activity change, positive = activation: at the top concentration. The method, boiled down: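 Firefly luciferase readout (Dual-Glo, 10 min RT) after 24 h, 37 °C compound exposure (final up to 57.5 uM) of HEK293 reporter cells cultured 24 h beforehand; PTC124 at 50 uM final as control inhibitor; activity scaled vehicle 0%, zero RLU -100%.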
Background: In qHTS, concentration-response curves come from the screen itself.
As to `COc1cc(NC(=O)CN2C(=O)C(c3ccc(Cl)cc3)=NC23CCCCC3)cc(OC)c1`, the “activity change, positive = activation” value was inactive: -59.9%.
As to `Cc1cc2c(cc3c(SCc4cccc(F)c4)nnc(C)n32)o1`, the “activity change, positive = activation” value is inactive: 10.5%.
The same measure for `Cc1cccc(C(=O)N2CCC(N3CCN(Cc4ccc(F)cc4)C(=O)C3=O)CC2)c1`: inactive: 6.47% [at 11.5 µM, percent change from vehicle, -100% = no light].
The figure for `COC(=O)c1ccc(Cl)cc1NC(=O)NC(C)c1c(-n2cccc2)sc(C)c1C` (centres undefined) is inactive: -21.4%.
The same measure for `O=c1c2c3c(sc2n(Cc2ccccc2F)c(=O)n1-c1ccc(Cl)cc1)CCCC3`: inactive: -7.23%.
As for `COc1ccc(NC(=O)CCc2nc3cccnc3n2-c2ccccc2)cc1Cl`, the “activity change, positive = activation” value is inactive: -24.6%.
The same measure for `COCCn1c(SCC(=O)Nc2cccc(C)c2C)nc2c(oc3ccccc32)c1=O`: inactive: -0.859%; for `Cc1cc(-c2ccc(S(=O)(=O)Nc3cc(Cl)ccc3C)s2)on1`: inactive: -43.3%; for `COc1ccc(CCNC(=O)c2cc3c(-c4ccc(OC)c(OC)c4)nn(C)c3s2)cc1OC`: inactive: -45.6%.
The same measure for `Cc1ccc(Cn2c(CO)cnc2SCc2cccc(F)c2)cc1`: inactive: 7.18%; for `Cc1oc2ncn(C)c(=O)c2c1C(=O)N(Cc1ccccc1)C(C)C`: inactive: -4.61%.
The figure for `Cc1ccc(Cl)cc1N1CCN(C(=O)c2ccc(CS(=O)(=O)c3ccc(Br)cc3)o2)CC1` is inactive: -53.4%; for `CCOC(=O)c1c(C)[nH]c(CCC(=O)NCc2cccc(OC)c2)c1C` it is inactive: -10.8%; for `Cc1ccc(Cl)cc1N1CCN(C(=O)CCn2c(=O)c3cccn3c3cccnc32)CC1` it is inactive: -12.5%.
Consider `CSCCC(NS(=O)(=O)c1ccc2c(c1)oc(=O)n2C)C(=O)Nc1ccc(F)c(Cl)c1` (centres undefined), for which the “activity change, positive = activation” value is inactive: -10.8%.
`Cc1cccc(NC(=O)c2cnc3sc(N4CCCC4)nn3c2=O)c1C`: the “activity change, positive = activation” value is inactive: -2.17%.
As to `COc1ccc(NC(=O)c2c(NCc3cccc(F)c3)sc3c2CCC3)c(OC)c1`, the “activity change, positive = activation” value is inactive: -14.8%.
For `COc1ccc(OC)c(CNC(=O)c2c(C)oc3ncn(CC(C)C)c(=O)c23)c1`, the “activity change, positive = activation” value was inactive: -16.4%.
For `CCCCOc1ccc(C2=NC(c3cccs3)=Nc3ccc(OC)cc3N2)cc1`, the “activity change, positive = activation” value is inactive: -9.82%.
The figure for `COc1cccc2sc(N(Cc3cccnc3)C(=O)c3ccco3)nc12` is inactive: -0.777%; for `Cc1nn(C)c(C)c1S(=O)(=O)N(CC(=O)NCCc1ccc(Cl)cc1)c1ccc(C(C)C)cc1` it is inactive: -14.8%; for `O=C(NCC(c1cccnc1)N1CCN(c2ccccc2F)CC1)c1ccc(F)cc1` (centres undefined) it is inactive: -36.6%.
The figure for `COc1cc2c(cc1OC)C(=O)CC2` is inactive: 4.11%; for `COc1ccc(C)cc1NC(=O)C(=O)NCCc1sc(-c2cccc(C)c2)nc1C` it is inactive: 1.15%.
The same measure for `Cc1cc(C)cc(NC(=O)Cc2csc(COc3cccc(C)c3)n2)c1`: inactive: -9.25%; for `Cc1ccccc1C(=O)Nc1ccc(S(=O)(=O)N2CCC(c3nc4ccccc4s3)CC2)cc1`: inactive: -36.2%; for `Cc1c(C)c2c(cc(C)c3c(-c4ccc(Br)cc4)coc32)oc1=O`: inactive: -13.4%.
Consider `CCOC(=O)c1cccc(NC(=O)CCn2c(=O)oc3ccccc32)c1`, for which the “activity change, positive = activation” value was inactive: -13.3%.
The same measure for `CCC(Oc1ccccc1)C(=O)Nc1cccc(OCc2cc(=O)n3cccc(C)c3n2)c1` (centres undefined): inactive: -14.8%; for `Cc1ccc(CSc2nnc([C@@H](N)C(C)C)o2)cc1`: inactive: -3.48%.
On to `CC(=O)c1ccc(NC(=O)Cn2c(=O)cc(C)c3c(C)nn(-c4cccc(F)c4)c32)cc1`, for which the “activity change, positive = activation” value is inactive: -12.5%.
The figure for `CCOC(=O)c1c(C)[nH]c(C)c1S(=O)(=O)NCC(=O)Nc1cccc(SC)c1` is inactive: 2.91%; for `CCC1CCc2nc3sc(C(=O)Nc4cccc(F)c4)c(N)c3cc2C1` (centres undefined) it is inactive: 2.9%; for `COc1cccc(NC(=O)CSc2nc(C)c(Cc3ccccc3)c(=O)[nH]2)c1` it is inactive: -21.2%.
The figure for `Cc1ccc(C2N=C(N)Nc3nc4ccccc4n32)cc1` (centres undefined) is inactive: -8.74%; for `CCN(CC)c1ccc(C(=O)NCc2nc3cccnc3n2Cc2ccc(C)cc2)cc1` it is inactive: -14.4%; for `Cc1cccc(-c2nc3c4c(-c5ccccc5)c(-c5ccccc5)oc4ncn3n2)c1` it is inactive: -2.23%.
The same measure for `Cc1cccc(NC(=O)Cn2cc(S(=O)(=O)N3CCCC3)c(S(=O)(=O)N3CCCC3)c2)c1C`: inactive: 10.9% [at 11.5 µM, percent change from vehicle, -100% = no light]; for `CC1=C(C/C=C(\C)CCC[C@H](C)CCC[C@H](C)CCCC(C)C)C(=O)c2ccccc2C1=O`: inactive: 10.3%; for `CC(=O)N1c2ccc(S(=O)(=O)N3CCC(C(=O)Nc4cccc(Cl)c4C)CC3)cc2CC1C` (centres undefined): inactive: -37.8%.
For `Cc1cccc(Cn2cc(S(=O)(=O)c3ccccc3)c(=O)c3cc(F)c(N4CCOCC4)cc32)c1`, the “activity change, positive = activation” value is inactive: -22.9%.
For `Cc1cccc(C)c1NC(=O)C1CCCN1S(=O)(=O)c1ccccc1` (centres undefined), the “activity change, positive = activation” value is inactive: -3.58%.
The same measure for `Cc1ccc2c(CC(=O)Nc3ccc(S(=O)(=O)N4CCCCC4C)cc3)coc2c1C` (centres undefined): inactive: -21.5%.
The figure for `CCc1ccc2ncc3c(-c4ccc(F)cc4)nn(CC(=O)NC4CCCCC4)c3c2c1` is inactive: -1.94%; for `O=C(OCCOCCO)c1ccccc1Nc1cccc(C(F)(F)F)c1` it is inactive: -23.4%.
With `CCOC(=O)Cn1c(=O)n(-c2cccc(Cl)c2)c2nc(-c3ccccc3Cl)nc(C(N)=O)c21`, the “activity change, positive = activation” value was inactive: -30.4%.
Take `CN(C)c1ccc(CNC(=O)Cc2ccc(NC(=O)N3CCCCc4ccccc43)cc2)cc1`: the “activity change, positive = activation” value was inactive: 5.27%.
`COc1ccc(N2CCN(CCCNC(=O)c3nnc(Cc4ccc(F)cc4)o3)CC2)cc1`: the “activity change, positive = activation” value is inactive: -29.8%.
The same measure for `Cc1ccccc1OC(=O)c1nc(SCc2ccccc2F)ncc1Cl`: inactive: 5.96%; for `CCCNC(=O)C1CCC(Cn2c(=O)c3sccc3n(CC(=O)NCc3ccccc3)c2=O)CC1` (centres undefined): inactive: -9%.
The figure for `CCOC(=O)c1ccc(NC(=O)CCCc2nc(-c3cc(OC)c(OC)c(OC)c3)no2)cc1` is inactive: -60%.
Consider `CCOc1ccc(S(=O)(=O)N(CC(=O)Nc2ccc(OC)cc2OC)c2ccccc2)cc1`, for which the “activity change, positive = activation” value is inactive: -3.62%.
Take `Cc1nn(CCCC(=O)NCc2ccccc2Br)c(=O)c2c1sc1ccccc12`: the “activity change, positive = activation” value is inactive: -1.05%.
The figure for `O=C(NCc1ccccc1F)C1CCCN(C(=O)N2CCOc3ccccc32)C1` (centres undefined) is inactive: -25.9%; for `O=C(CN1C=NS(=O)(=O)c2ccccc21)Nc1ccccc1F` it is inactive: -8.64%.
`COc1ccc(OC)c(CNS(=O)(=O)c2ccc3c(c2)oc(=O)n3C)c1`: the “activity change, positive = activation” value is inactive: -17.2%.
The same measure for `Cc1cccc2nc(Cn3c(=O)n(-c4ccc(Cl)cc4)c(=O)c4c5c(sc43)CCC5)cc(=O)n12`: inactive: -12.7%.
The same measure for `CCOc1ccc(C(=O)Nc2cccc(C(=O)OCc3cc(=O)n4cc(C)sc4n3)c2)cc1`: inactive: -29.3%.
For the molecule `COc1ccc(S(=O)(=O)N(CC(=O)N2CCc3ccccc3C2)c2ccc(C)cc2)cc1`, the “activity change, positive = activation” value is inactive: -20.7%.
